The results in this text go back to patent US20240043542A1 (published 2024).

The term EC50 denotes the midpoint of the concentration-response curve. What is called Kd is the concentration at which binding is half-saturated. A word on the koff: it is a measure of how fast the partners let go of each other. For orientation: kon means the rate constant with which the complex forms.

Assay [1] addresses T1, human B7-H4 on the cell surface (human, UniProt Q7Z7D3 25-282).
T1 construct: full-length human B7-H4 on transfected HEK293T cells or endogenous on SK-BR-3 cells; also called SK-BR-3 (endogenous human B7-H4)
T1 sequence: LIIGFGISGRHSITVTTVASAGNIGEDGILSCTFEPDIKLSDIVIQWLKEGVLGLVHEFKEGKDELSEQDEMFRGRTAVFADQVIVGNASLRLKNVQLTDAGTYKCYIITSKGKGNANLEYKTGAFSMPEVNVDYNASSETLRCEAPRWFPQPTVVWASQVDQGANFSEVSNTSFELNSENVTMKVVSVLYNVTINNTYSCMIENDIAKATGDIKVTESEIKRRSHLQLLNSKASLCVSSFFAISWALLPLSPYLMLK
The assay is described as follows: flow cytometry, SK-BR-3 cells.

Assay [2] has as its target T1, human B7-H4 on the cell surface. The assay is described as follows: cell-based or functional assay.
Assay [3] deals with T2, B7-H4 IgV-huIgG1 (human).
T2 construct: also called N-terminal domain of human B7-H4
Briefly: SPR, protocol of Example 4. On the technique in general: In SPR one partner is held on a chip, and binding of the other changes the refractive index at the surface.

Assay [4] addresses T1, human B7-H4 on the cell surface. The assay is described as follows: cell-based or functional assay. This is another data set of the same source.
The target of assay [5] is T3, cynomolgus monkey B7-H4 on the cell surface (cynomolgus monkey, UniProt Q7Z7D3 25-282 (human entry)).
T3 construct: full-length, on transfected HEK293T cells
T3 chain: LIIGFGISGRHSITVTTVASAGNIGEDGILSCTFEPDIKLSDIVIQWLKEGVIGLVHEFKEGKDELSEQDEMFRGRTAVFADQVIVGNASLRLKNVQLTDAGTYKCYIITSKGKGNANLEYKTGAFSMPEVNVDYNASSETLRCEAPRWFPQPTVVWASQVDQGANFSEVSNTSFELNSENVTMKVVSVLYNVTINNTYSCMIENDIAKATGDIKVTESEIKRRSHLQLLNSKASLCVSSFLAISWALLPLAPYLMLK
Briefly: flow cytometry, transfected 293 cells. In general terms: A flow cytometer gives signals particle by particle.

The target in assay [6] is T4, rat B7-H4 on the cell surface (rat, UniProt Q501W4 25-257).
T4 construct: full-length, on transfected HEK293T cells
T4 sequence: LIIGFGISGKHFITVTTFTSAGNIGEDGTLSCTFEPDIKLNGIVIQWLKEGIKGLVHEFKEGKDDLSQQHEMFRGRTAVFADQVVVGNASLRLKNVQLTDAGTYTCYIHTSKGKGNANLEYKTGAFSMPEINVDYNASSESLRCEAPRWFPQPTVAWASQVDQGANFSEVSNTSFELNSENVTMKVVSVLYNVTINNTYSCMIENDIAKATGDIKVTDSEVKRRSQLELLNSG
The assay is described as follows: flow cytometry, transfected 293 cells.

For assay [7], the target named is T5, mouse B7-H4 on the cell surface (mouse, UniProt Q7TSP5 25-257).
T5 construct: full-length, on transfected HEK293T cells
T5 sequence: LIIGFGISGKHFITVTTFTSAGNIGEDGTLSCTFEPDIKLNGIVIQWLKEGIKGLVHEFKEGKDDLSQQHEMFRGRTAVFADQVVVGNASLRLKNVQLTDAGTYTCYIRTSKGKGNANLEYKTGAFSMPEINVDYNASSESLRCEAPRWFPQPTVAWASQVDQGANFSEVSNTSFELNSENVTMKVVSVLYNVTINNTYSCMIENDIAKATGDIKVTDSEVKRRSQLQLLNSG
Briefly: flow cytometry, transfected 293 cells.

B1: B7-H4 antibody 20502, afucosylated (antibody, human IgG1, kappa)
heavy: QLQLQESGPGLVKPSETLSLTCTVSGGSIKSGSYYWGWIRQPPGKGLEWIGNIYYSGSTYYNPSLRSRVTISVDTSKNQFSLKLSSVTAADTAVYYCAREGSYPNQFDPWGQGTLVTVSS[human IgG1 constant region omitted here]
light: EIVMTQSPATLSVSPGERATLSCRASQSVSSNLAWYQQKPGQAPRLLIYGASTRATGIPARFSGSGSGTEFTLTISSLQSEDFAVYYCQQYHSFPFTFGGGTKVEIKRTVAAPSVFIFPPSDEQLKSGTASVVCLLNNFYPREAKVQWKVDNALQSGNSQESVTEQDSKDSTYSLSSTLTLSKADYEKHKVYACEVTHQGLSSPVTKSFNRGEC
modifications: afucosylated Fc glycan (made in CHO-y cells)
notes: human IgG1/kappa; also called Ab-A
As for B1, the EC50 in assay [1] was determined as 0.483 nM; in assay [5], 2.92 nM; in assay [6], 2.45 nM; in assay [7] it was 1.66 nM. For the same molecule, in assay [2], the “ADCC Assay EC50 (SK-BR-3 target cells)” value is 0.0007 nM. Moreover, the Kd in assay [3] worked out at 2.74 nM. Also, the off-rate (koff) in assay [3] turned out to be 0.00115 s⁻¹. Moreover, the association rate constant (kon) in assay [3] came out at 419000 M⁻¹ s⁻¹. The “aAPC Assay EC50 (IFNγ production)” value in assay [4] stood at 0.89 nM.

B2: B7-H4 antibody 20502, fucosylated (antibody, human IgG1, kappa)
heavy: QLQLQESGPGLVKPSETLSLTCTVSGGSIKSGSYYWGWIRQPPGKGLEWIGNIYYSGSTYYNPSLRSRVTISVDTSKNQFSLKLSSVTAADTAVYYCAREGSYPNQFDPWGQGTLVTVSS[human IgG1 constant region omitted here]
light: EIVMTQSPATLSVSPGERATLSCRASQSVSSNLAWYQQKPGQAPRLLIYGASTRATGIPARFSGSGSGTEFTLTISSLQSEDFAVYYCQQYHSFPFTFGGGTKVEIKRTVAAPSVFIFPPSDEQLKSGTASVVCLLNNFYPREAKVQWKVDNALQSGNSQESVTEQDSKDSTYSLSSTLTLSKADYEKHKVYACEVTHQGLSSPVTKSFNRGEC
modifications: normally fucosylated Fc glycan (made in CHO-x cells)
notes: human IgG1/kappa; also called Ab-F
B2: the concentration for a half-maximal effect (EC50) was determined as 0.571 nM in assay [1], 3.29 nM in assay [5], 2.49 nM in assay [6] and 4.37 nM in assay [7]. In assay [2], the “ADCC Assay EC50 (SK-BR-3 target cells)” value worked out at 0.037 nM. The koff in assay [3] was found to be 0.0011 s⁻¹. Further, the on-rate constant (kon) in assay [3] was found to be 428000 M⁻¹ s⁻¹. Moreover, the “aAPC Assay EC50 (IFNγ production)” value in assay [4] came to 0.74 nM.
